The values that follow come from the RNAGym collection of RNA variant scans (doi:10.1073/pnas.2313332121).

Variants at the floor of the assay are shown more often than the library holds them.

First the molecules themselves.
B1: TPR 5TU (parent)
chain: GGAUCUUCUCGAUCUAACAAAAAAGACAAAUCUGCCACAAAGCUUGAGAGCAUCUUCGGAUGCAGAGGCGGCAGCCUUCGGUGGCGCGAUAGCGCCAACGUUCUCAACUAUGACACGCAAAACGCGUGCUCCGUUGAAUGGAGUUUAUCAUG

Variants of B1 are the subject of the data set. In words: polymerase ribozyme fitness, log enrichment relative to wild type (log ratio); higher = more active; in vitro selection for triplet polymerase activity. The method, boiled down:
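The heterodimeric triplet polymerase ribozyme's subunits were each mutagenized into PCR-built libraries and transcribed. Every library was selected once, in triplicate, by annealing with a biotinylated primer, the partner subunit and triplets, incubating frozen at −7 °C, gel-excising extended constructs, capturing on streptavidin beads and running RT-PCR. Input and output libraries were Illumina-sequenced, with genotypes kept only at ≥10 input reads and ≥1 read per output. Fitness, from inverse-variance-weighted replicate averages, is the base-2 logarithm of genotype enrichment over wild-type enrichment.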
For the variant U4C U6A G11U C36U A91U C96A U104G U144A A150C, the “polymerase ribozyme fitness (log ratio)” value is not above -4.2.

Take A3C U6G G84U U144A: the “polymerase ribozyme fitness (log ratio)” value was not above -4.2.

For the variant U4G C75G C85A, the “polymerase ribozyme fitness (log ratio)” value is not above -4.2.

For the variant U4A A12C C63U G83U A107C C116U U144A, the “polymerase ribozyme fitness (log ratio)” value was not above -4.2.

For U4G C85G C93G G94A C96A C114U, the “polymerase ribozyme fitness (log ratio)” value is not above -4.2.

As for A3C U4A U6A A29G G48U G62C G65C G92A U144A, the “polymerase ribozyme fitness (log ratio)” value is not above -4.2.

For A3U A26C C54U U102A G124U U144C U151A, the “polymerase ribozyme fitness (log ratio)” value is not above -4.2.

Take A3U U53A G84U A138G G152A: the “polymerase ribozyme fitness (log ratio)” value is not above -4.2.

As for A3G C27G C35U G80U, the “polymerase ribozyme fitness (log ratio)” value is not above -4.2.

As to U4C A21U C57G A60G C85A A89C G94A, the “polymerase ribozyme fitness (log ratio)” value is -2.06.

A3U C114U C118G A137C G141C: the “polymerase ribozyme fitness (log ratio)” value is not above -4.2.

Take A3U U55A G88C C105U A107G G117U G141C: the “polymerase ribozyme fitness (log ratio)” value was not above -4.2.

Consider A3G A39U C85G A97U G140C, for which the “polymerase ribozyme fitness (log ratio)” value was not above -4.2.

Take A3G U4A A39G U56A G74U C87U C96A A137U: the “polymerase ribozyme fitness (log ratio)” value was not above -4.2.

Regarding U4A U9G C85A, the “polymerase ribozyme fitness (log ratio)” value is not above -4.2.

Regarding U4G A23U U44G C51U C76G C96U U148C, the “polymerase ribozyme fitness (log ratio)” value is not above -4.2.

For U4C C35U A47C U78G G136C, the “polymerase ribozyme fitness (log ratio)” value is not above -4.2.

As for U4C U15A A26U A49C A52C C85A G141A G143C, the “polymerase ribozyme fitness (log ratio)” value is not above -4.2.

As to U4C C85U C93U C105A A107U A150G, the “polymerase ribozyme fitness (log ratio)” value is not above -4.2.

For the variant A3G C72A C75G C96U A98U, the “polymerase ribozyme fitness (log ratio)” value is not above -4.2.

Turning to U4G U13A G42C U55G C63U C85G U111G C114A, the “polymerase ribozyme fitness (log ratio)” value was not above -4.2.

As for U4G U33G U55C C76U G86U C105A C116U, the “polymerase ribozyme fitness (log ratio)” value was not above -4.2.

With U4C U45A U55G C69G G86U A110G U111G, the “polymerase ribozyme fitness (log ratio)” value was not above -4.2.

Consider A3G C54U C87A A89G C96A U102G C114A, for which the “polymerase ribozyme fitness (log ratio)” value was not above -4.2.

Consider U4C U6G C35A C85U C108U G141A, for which the “polymerase ribozyme fitness (log ratio)” value was not above -4.2.

As to U4A U45A G74A U78A U90G A98G A122U, the “polymerase ribozyme fitness (log ratio)” value is not above -4.2.

As for U4G U33A U53A C85G A89U, the “polymerase ribozyme fitness (log ratio)” value is not above -4.2.

As for U4G A28U C35U U44G G94A A120U C125U G141C, the “polymerase ribozyme fitness (log ratio)” value is not above -4.2.

With A3G A26C C63A G71A C105G A107G, the “polymerase ribozyme fitness (log ratio)” value was not above -4.2.

In the case of A3G U15G G71U U77C, the “polymerase ribozyme fitness (log ratio)” value is not above -4.2.

On to A3U G68U C69G U101G, for which the “polymerase ribozyme fitness (log ratio)” value is not above -4.2.

Take A3U C8A C36A G48A A73C G81A G92A: the “polymerase ribozyme fitness (log ratio)” value was not above -4.2.

As for U4A A19U C69U A91U C95G C103U G140C, the “polymerase ribozyme fitness (log ratio)” value was not above -4.2.

Regarding U4C U56A C79A C85U A89C A98G A115C G143A, the “polymerase ribozyme fitness (log ratio)” value was not above -4.2.

With U4A A22C U31G G67U A97G, the “polymerase ribozyme fitness (log ratio)” value is not above -4.2.

For A3G A49G U53A A106G G117A C123U, the “polymerase ribozyme fitness (log ratio)” value is not above -4.2.

A3U A16C A52U C57U C76U G86U: the “polymerase ribozyme fitness (log ratio)” value was not above -4.2.

For U4G A41G G42C C43U U44A C69A G84U C95A C123U U134G, the “polymerase ribozyme fitness (log ratio)” value is not above -4.2.

With A3U A22C C87A G92U, the “polymerase ribozyme fitness (log ratio)” value was -0.18.

With U4G A49C, the “polymerase ribozyme fitness (log ratio)” value is not above -4.2.

With A3G A16G A24C A49G G80C, the “polymerase ribozyme fitness (log ratio)” value was not above -4.2.

As for A3U C5G A37G C95U U130G U144C, the “polymerase ribozyme fitness (log ratio)” value was not above -4.2.

On to U4A C18G G68A G92U, for which the “polymerase ribozyme fitness (log ratio)” value was not above -4.2.

Consider U4A C54A G71C G94A C105U, for which the “polymerase ribozyme fitness (log ratio)” value is not above -4.2.

With U4C C57U A66C C87U, the “polymerase ribozyme fitness (log ratio)” value is not above -4.2.

As for A3G A52U C54U U77G A121G A122G A137G, the “polymerase ribozyme fitness (log ratio)” value was not above -4.2.

In the case of A3U A73G G86U C129A A137G, the “polymerase ribozyme fitness (log ratio)” value is not above -4.2.

On to U4G C5A C14G A41C U53A A64U C79U C93A U109A, for which the “polymerase ribozyme fitness (log ratio)” value was not above -4.2.

Turning to U4C U53A G70C C85G C118U C123U G141A U151C, the “polymerase ribozyme fitness (log ratio)” value was not above -4.2.

Turning to U4G A28U A52C A60C U61G G70C C85G U134A U144A, the “polymerase ribozyme fitness (log ratio)” value is not above -4.2.

As for A3U U55A G62A U90C G94A G140C, the “polymerase ribozyme fitness (log ratio)” value was not above -4.2.

Turning to A3U C38A C87U C95U G128C, the “polymerase ribozyme fitness (log ratio)” value is not above -4.2.

With A3U A26U C93U C95U C99G C125G, the “polymerase ribozyme fitness (log ratio)” value was not above -4.2.

On to U4C A26U U55A G88A C116A, for which the “polymerase ribozyme fitness (log ratio)” value was not above -4.2.

Regarding A3G C54G C87A A98C G133A, the “polymerase ribozyme fitness (log ratio)” value is not above -4.2.

As for U4A A16U A26U A41C C54A C79G C96A U111C, the “polymerase ribozyme fitness (log ratio)” value is not above -4.2.

Regarding U4C C10G A26G C27G G81U G88U C93U A115G U139G G141U A142C U145C, the “polymerase ribozyme fitness (log ratio)” value was not above -4.2.

For the variant A3C U4A, the “polymerase ribozyme fitness (log ratio)” value came to 0.257.

Consider A3U G58A U78G C87G, for which the “polymerase ribozyme fitness (log ratio)” value is not above -4.2.

With U4C U9A A20G U61G G68A A73U C93A C95G C103A U151G, the “polymerase ribozyme fitness (log ratio)” value is not above -4.2.

Turning to A3U U7G A49C C85U A142U, the “polymerase ribozyme fitness (log ratio)” value was not above -4.2.

In the case of A3U C14A G42U A52G G140A U144C, the “polymerase ribozyme fitness (log ratio)” value was not above -4.2.

Consider U4A A21U C38U C85A C87G C103A, for which the “polymerase ribozyme fitness (log ratio)” value is not above -4.2.

With U4C U53A G92C C114A A120G, the “polymerase ribozyme fitness (log ratio)” value was not above -4.2.

Regarding A3U C75G G81A G141U, the “polymerase ribozyme fitness (log ratio)” value is not above -4.2.

As to A3U A37U G70C C85U G92A, the “polymerase ribozyme fitness (log ratio)” value was not above -4.2.

For A3G U13A A39U U55A A66G C72A C108U, the “polymerase ribozyme fitness (log ratio)” value was not above -4.2.

As for A3U A16G C35U C87U A106G G133U G136C, the “polymerase ribozyme fitness (log ratio)” value was not above -4.2.

In the case of A3U U6A A26G G34A A39U G88U G92A U101G A106U, the “polymerase ribozyme fitness (log ratio)” value was not above -4.2.

Take U4C U44C A47G G83A A97G A107G A110C C114G: the “polymerase ribozyme fitness (log ratio)” value was not above -4.2.

Take U4A C103A: the “polymerase ribozyme fitness (log ratio)” value is -2.38.

U4A A49G G50C A66C C76G C93U: the “polymerase ribozyme fitness (log ratio)” value was not above -4.2.

As to A3U A28C U61A C96U C99U U102C C149U, the “polymerase ribozyme fitness (log ratio)” value is not above -4.2.

For the variant U4C G86U A137U, the “polymerase ribozyme fitness (log ratio)” value was not above -4.2.

U4G U31C C38U C131G U144C: the “polymerase ribozyme fitness (log ratio)” value is not above -4.2.

For the variant U4G C87A, the “polymerase ribozyme fitness (log ratio)” value is not above -4.2.

In the case of U4A A17C G59C A119G, the “polymerase ribozyme fitness (log ratio)” value is -0.404.

On to A3U C85U A91U C95G G140U, for which the “polymerase ribozyme fitness (log ratio)” value is not above -4.2.

With U4G A24C A26C G81C G92C A98U C114A G141C, the “polymerase ribozyme fitness (log ratio)” value was not above -4.2.

In the case of U4C C54G C85A C99A A122U, the “polymerase ribozyme fitness (log ratio)” value was not above -4.2.

For A3U C18G A28U C38U G92U C96G C132A G141A U145G, the “polymerase ribozyme fitness (log ratio)” value was not above -4.2.

As to C5A A16G A40C U45G A47C C51U A97G C99U U127G, the “polymerase ribozyme fitness (log ratio)” value was not above -4.2.

For U4G G46U A47C A52C C85G C125G, the “polymerase ribozyme fitness (log ratio)” value is not above -4.2.
